These results are taken from PubChem BioAssay AID1745853 (National Center for Advancing Translational Sciences (NCATS), 2022).

Each structure is given as a SMILES string. Values joined by “and” are separate entries in the source; they are usually repeats but may differ in a detail not shown here. Identical values can stand only once. Some of the results follow. These are further read-outs of the screen, such as a control signal, another cell line or another target. No call is given for them.

Holding throughout (assay): Primary Screen for Target Class Profiling of Small Molecule Inhibitors of Methyltransferases
Assay [1] concerns the target Glycine N-methyltransferase (Homo sapiens) (UniProt Q14749). Particulars: purified enzyme, MTase-Glo SAH luminescence; measured here: GNMT inhibition; at 40 µM; stronger effect = lower value. Put shortly:
(§1)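 Each enzyme was assayed with SAM and its substrate. SAH formation detected by MTase-Glo luminescence; single-point 40 uM screen[…].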

Assay [2] deals with Guanidinoacetate N-methyltransferase (Homo sapiens) (UniProt Q14353). Particulars: purified enzyme, MTase-Glo SAH luminescence; measured here: GAMT inhibition; at 40 µM; stronger effect = lower value. An outline of the steps: as §1
Assay [3] deals with Histamine N-methyltransferase (Homo sapiens) (UniProt P50135). Particulars: purified enzyme, MTase-Glo SAH luminescence; measured here: HNMT inhibition; at 40 µM; stronger effect = lower value. An outline of the steps:
as §1

For assay [4], the target named is Nicotinamide N-methyltransferase (Homo sapiens) (UniProt P40261). Particulars: purified enzyme, MTase-Glo SAH luminescence; measured here: NNMT inhibition; at 40 µM; stronger effect = lower value. An outline of the steps:
as §1

Assay [5] concerns the target Phenylethanolamine N-methyltransferase (Homo sapiens) (UniProt P11086). The conditions noted are these: purified enzyme, MTase-Glo SAH luminescence; measured here: PNMT inhibition; at 40 µM; stronger effect = lower value. An outline of the steps: as §1
On the % scale 0 is the no-effect control and ±100 the full control effect.

On to `O=c1c(C2CCCCC2)ccc2n1C[C@H]1C[C@@H]2CN(S(=O)(=O)c2ccccc2)C1`, for which the activity change, negative = inhibition in assay [1] is -14.8%; in assay [2] it was -8.77%; in assay [3] it was -6.92%; in assay [4], -19%; in assay [5], -3.46%.
With `COC(=O)CC1CC2(C(=O)c3c(O)cccc3C2(O)C(=O)OC)C(C)O1` (configuration not stated), the activity change, negative = inhibition was 0% in assay [1]; 8.94% in assay [2]; 10.5% in assay [3]; -2.66% in assay [4]; 7.22% in assay [5].
The corresponding values for `CCC1(O)CCC2C3CCC4=CC(=O)CCC4C3CCC21CC` (configuration not stated) are -3.49%, 1.15%, 3.17%, -14.3% and -1.16%.
With `Cc1cc(C(=O)CN2CCCC2)c(C)n1-c1ccc(F)cc1`, the activity change, negative = inhibition was -8.32% and -9.2% in assay [1]; 1.75% and -10.2% in assay [2]; -3.22% and -5.15% in assay [3]; -15.4% and -19.8% in assay [4]; -4.25% and -5.52% in assay [5].
On to `Cc1ccc(CNC(=O)N2Cc3ccccc3-n3cccc3C2c2ccc(F)cc2)cc1` (configuration not stated), for which the activity change, negative = inhibition in assay [1] is -3.6%; in assay [2], 3.42%; in assay [3], -3.71%; in assay [4], -5.2%; in assay [5] it was 2.06%.
As for `C[C@@]1(CO)[C@H](O)CC[C@@]2(C)[C@H]1CC[C@H]1C[C@@H]3C[C@@]12CC[C@]3(O)CO`, the activity change, negative = inhibition is 0% in assay [1]; 3.59% in assay [2]; -0.028% in assay [3]; -9.37% in assay [4]; 4.2% in assay [5].
In the case of `CC1(C(=O)O)C2CCC(O2)C1(C)C(=O)O` (configuration not stated), the activity change, negative = inhibition in assay [1] is -11.1%; in assay [2], 2.9%; in assay [3], -0.379%; in assay [4], -3.77%; in assay [5], 5.43%.
For `CC(C)(C)NCC(O)c1ccccc1Cl` (configuration not stated), in that order: 2.59%, 14.6%, 8.71%, -1.07% and 6.19%.
For `Cc1ccc(CNC(=O)N2Cc3ccccc3-n3cccc3C2C)cc1` (configuration not stated), in that order: 12.7%, 3.17%, 3.51%, -5.71% and 7.21%.
As to `CC1c2cccn2-c2ccccc2CN1C(=O)NCc1ccccc1` (configuration not stated), the activity change, negative = inhibition is 4.84% in assay [1]; 3.07% in assay [2]; -7.56% in assay [3]; -17.8% in assay [4]; -0.44% in assay [5].
`Cc1cccc(C2c3cccn3-c3ccccc3CN2C(=O)Nc2cccc(Cl)c2C)c1` (configuration not stated): the activity change, negative = inhibition in assay [1] was 0.857%; in assay [2] it was 2.86%; in assay [3], -1.58%; in assay [4], 0.111%; in assay [5], 0.896%.
With `C#C[C@H]1CN2CC[C@H]1C[C@@H]2CNC(=O)C1CC1`, the activity change, negative = inhibition in assay [1] was -3.84%; in assay [2] it was -3.23%; in assay [3] it was -13.8%; in assay [4], -7.26%; in assay [5] it was -7.93%.
For `CCC1c2cccn2-c2ccccc2CN1C(=O)NCCc1ccccc1` (configuration not stated), in that order: 6.56%, 0%, -1.96%, -2.4% and 2.89%.
`COC(=O)N1CCN(C(=O)Cc2ccc(Cl)c(Cl)c2)[C@@H](CN2CCCC2)C1`: the activity change, negative = inhibition stood at 2.92% in assay [1] and 5.15% in assay [3].
Take `FC(F)(F)CN1C2CCC1CN(c1nnc(Cl)c3ccccc13)C2`: the activity change, negative = inhibition in assay [1] was -17.2%; in assay [2], 0.825%; in assay [3], -0.842%; in assay [4] it was -3.81%; in assay [5] it was -5.5%.
The corresponding values for `CC(=O)OCC1=C(C(=O)O)N2C(=O)[C@@H](N)[C@H]2SC1` are 2.05%, 1.23%, 13.4%, -4.02% and 5.01%.
As to `CCC1c2cccn2-c2ccccc2CN1C(=O)Nc1ccc(C)c(Cl)c1` (configuration not stated), the activity change, negative = inhibition in assay [1] is 1.4%; in assay [2] it was 5.08%; in assay [3], 1.99%; in assay [4], 1.93%; in assay [5], 3.36%.
For `CCOc1ccc(C2c3cccn3-c3ccccc3CN2C(=O)NCCC(=O)OC)cc1` (configuration not stated), in that order: -0.551%, 1.12%, 6.01%, 3.55% and 7.83%.
The corresponding values for `Cc1cccc(NC(=O)N2Cc3ccccc3-n3cccc3C2C)c1` (configuration not stated) are 9.36%, 4.11%, 5.27%, 0.04% and 6.34%.
The corresponding values for `CCCS(=O)(=O)Nc1ccc(=O)n2c1[C@@H]1C[C@@H](CN(C(=O)Nc3ccc(OC)cc3)C1)C2` are -3.25%, 2%, -2.95%, -1.14% and 0.366%.
In the case of `CSc1nccc(N2CCC3(CCCN(CC4CC4)C3)C2)n1` (configuration not stated), the activity change, negative = inhibition in assay [1] is -3.52%; in assay [2] it was -9.57%; in assay [3], -13.8%; in assay [4], -13.3%; in assay [5] it was -8.69%.
On to `CCC(C)(C#N)O[C@@H]1O[C@H](CO)[C@@H](O)[C@H](O)[C@H]1O` (some centres not stated), for which the activity change, negative = inhibition in assay [1] was 1.01%; in assay [2] it was 10.1%; in assay [3] it was 9.09%; in assay [4], -3.63%; in assay [5], 6.99%.
For `CC(=O)OC[C@]12[C@H](OC(C)=O)C(=O)[C@@H]3[C@@H](O)[C@@]14O[C@@]3(C)COC(=O)c1cccnc1[C@@H](C)[C@H](C)C(=O)O[C@@H]([C@H](OC(C)=O)[C@@H]2OC(C)=O)[C@]4(C)O`, in that order: 4.98%, 4.52%, 6.26%, -7.34% and 2.32%.
The corresponding values for `CC1=CC(=O)[C@@H](O)[C@]2(C)C3[C@@H](O)[C@@H]4OC(=O)[C@@H]([C@H]4C)[C@]3(C)C(=O)C[C@@H]12` (some centres not stated) are 0%, 1.71%, 2.1%, -10.4% and 4.98%.
The corresponding values for `NCc1cc(=O)[nH]o1` are -2.23%, 7.54%, 1.94%, -4.71% and -1.79%.
For the compound `C[C@H]1CCC/C=C/C2C[C@H](O)C[C@H]2[C@H](O)/C=C/C(=O)O1` (some centres not stated), the activity change, negative = inhibition was -5% in assay [1]; -4.81% and 6.73% in assay [2]; 3.5% in assay [3]; -8.97% and -6.99% in assay [4]; -2.33% and 5.26% in assay [5].
Take `C[C@]12CC[C@H](O[C@@H]3O[C@H](CO)[C@@H](O)[C@H](O)[C@H]3O[C@@H]3O[C@H](CO)[C@@H](O)[C@H](O)[C@H]3O)CC1=CC[C@@H]1[C@@H]2CC[C@]2(C)[C@@H](C3=CC(=O)OC3)CC[C@]12O`: the activity change, negative = inhibition in assay [1] is -3.64%; in assay [2] it was -5.52%; in assay [3], 0.263%; in assay [4] it was -12.7%; in assay [5] it was -1.87%.
In the case of `CC(=O)O[C@H]1CC[C@@]2(CI)C(=CC[C@@H]3[C@@H]2CC[C@]2(C)C(=O)CC[C@@H]32)C1`, the activity change, negative = inhibition is -7.1% in assay [1]; -9.37% in assay [2]; -5.49% in assay [3]; -13.6% in assay [4]; -0.108% in assay [5].
The corresponding values for `COc1ccc(NC(=O)N2Cc3ccccc3-n3cccc3C2c2cccs2)cc1` (configuration not stated) are 9.71%, 5.34%, -0.532%, -3.02% and 5.74%.
For `COC(=O)c1cccc(NC(=O)N2Cc3ccccc3-n3cccc3C2c2ccc(SC)cc2)c1` (configuration not stated), in that order: -1.01%, 6.11%, 0.844%, -5.55% and 1.48%.
The corresponding values for `CN(C)c1ccc(C2c3cccn3-c3ccccc3CN2C(=O)Nc2ccccc2F)cc1` (configuration not stated) are 5.67%, 2.01%, -0.014%, 4.57% and 6.21%.
Consider `C#CCN[C@H](C)Cc1ccccc1`, for which the activity change, negative = inhibition was -8.39% in assay [1]; 2.02% in assay [2]; -3.6% in assay [3]; -10.3% in assay [4]; -1.54% in assay [5].
For `CCCN(CCC)[C@@H]1CCc2cccc(O)c2C1`, in that order: -9.66%, 3.13%, -17.8%, -6.34% and 5.53%.
The corresponding values for `Cc1ccc(CNC(=O)N2Cc3ccccc3-n3cccc3C2c2ccccc2C)cc1` (configuration not stated) are 6.32%, 0%, -2.25%, -1.54% and 0.094%.
The corresponding values for `O=C(Nc1ccccc1)N1Cc2ccccc2-n2cccc2C1c1ccccc1Cl` (configuration not stated) are 9.14%, 0.727%, 1.67%, 0.62% and 4.21%.
Turning to `Cc1c(Cl)cccc1NC(=O)N1Cc2ccccc2-n2cccc2C1c1ccc(N(C)C)cc1` (configuration not stated), the activity change, negative = inhibition in assay [1] turned out to be 12.9%; in assay [2] it was 0.262%; in assay [3], 3.97%; in assay [4] it was 8.25%; in assay [5], 5.27%.
The corresponding values for `CCCN1CCc2cc(O)cc3c2[C@H]1Cc1ccc(O)c(O)c1-3` are -92.7%, 2.63%, -29.5%, -12.6% and 2.37%.
The corresponding values for `CN1C(=O)c2ccccc2NC(=O)[C@]12O[C@@H]2c1ccccc1` are -2.47%, -5.32%, 9.13%, -17.7% and -10.8%.
The corresponding values for `Cc1ccc(NC(=O)N2C[C@@H]3C[C@H](C2)c2c(-c4cccs4)ccc(=O)n2C3)cc1` are -11%, -9.4%, -4.97%, -21.3% and -11.2%.
